The supplement of paper PMC3334620
Whole data set: some 33,000 sequences, median “E-score (-0.5 to 0.5)” near -0.036, cut for the highest 2% near 0.37. The list shows a part of the results.

Molecular target: T1, Yer064c (UniProt P40041)
T1 sequence: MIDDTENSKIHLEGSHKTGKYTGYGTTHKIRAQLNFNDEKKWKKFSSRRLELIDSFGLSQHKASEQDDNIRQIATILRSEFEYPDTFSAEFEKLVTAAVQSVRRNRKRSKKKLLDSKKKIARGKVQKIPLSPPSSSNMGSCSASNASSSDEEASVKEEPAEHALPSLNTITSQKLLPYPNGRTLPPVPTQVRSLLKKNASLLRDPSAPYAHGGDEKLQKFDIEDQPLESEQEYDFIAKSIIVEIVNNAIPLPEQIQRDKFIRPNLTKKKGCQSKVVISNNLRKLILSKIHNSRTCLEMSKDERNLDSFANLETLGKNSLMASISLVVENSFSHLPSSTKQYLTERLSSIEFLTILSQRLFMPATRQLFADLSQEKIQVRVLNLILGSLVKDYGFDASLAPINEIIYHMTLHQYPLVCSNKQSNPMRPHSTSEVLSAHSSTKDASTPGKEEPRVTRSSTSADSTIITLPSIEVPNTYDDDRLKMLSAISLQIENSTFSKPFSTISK
Experiment: PBM E-score (8-mer binding enrichment) (E-score (-0.5 to 0.5)); higher = stronger / more preferred TF binding; most listed sequences are background and not binding sites
Details: protein concentration: 200 nM; construct: GST-full length
How it was run: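 Each ungapped eight-base word and its reverse complement, pooled, received an E-score from the Universal PBM Analysis Suite. Underlying scans, normalised with masliner, recorded fluorescent anti-GST bound to GST-tagged yeast transcription factors. These were applied at about 100-200 nM to universal all-10-mer Agilent arrays double-stranded by primer extension.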

Sequence	PBM E-score
CAACAAAA	-0.00719
TTACATAA	0.0751
CACCCTTC	-0.028
TCCGCGGA	0.148
AGGAAACG	-0.21
TGAGGCAA	-0.0948
CCCGTAAC	-0.194
ACTCTATG	0.122
ACGGTCAG	-0.109
ACTGTGAA	0.0208
ACTCGATC	0.144
CACTTGCA	0.0364
CAAGGCGA	0.00644
GGTGAGAA	-0.14
TCCAGAAA	-0.023
CAGTTACG	-0.098
CTAAGTGA	0.276
ATGCTATC	0.0685
AAATGCAG	0.0024
AGTTTGCA	-0.0277
GCGCCATA	-0.26
TCTTGCCA	-0.148
TCAGGGAA	-0.148
AATGGGTC	0.116
CACAGATC	-0.0384

Sequence	PBM E-score
CGTCGTAA	-0.108
CCGATCCC	-0.274
GGCACGAC	0.0192
AAGATTGG	-0.0208
AAATTCTG	-0.0269
ACCTAGTG	-0.00497
CAACTTCC	0.0718
CACAGCTC	-0.155
AGAGACTA	0.347
AAAGACAA	0.0115
ACCTGTTC	-0.112
CATGTGGG	0.0744
CACAGTGA	0.147
AACGGTTC	-0.0232
GTCAGTTA	0.0503
CCGGCAAA	-0.0685
ACACCATC	0.00758
AGCACAAT	0.0108
GTAATAAA	0.0858
GCACGTTA	-0.0515
ATCTACTG	0.0463
ACCGACGT	-0.0811
ACTTGCTC	-0.0163
CATTCACA	-0.00304
CCCAGGCG	-0.174

Sequence	PBM E-score
CTCTTCTC	-0.194
ACCATAAT	0.113
CATGTTTA	0.242
ACGGATAG	-0.19
GGAACTGA	-0.00126
CCAGAGCC	-0.19
CGCTTCTC	-0.207
GACTAATA	0.445
ATGTAAGG	-0.0358
ACGGCCGA	-0.00351
CAGCGTCG	-0.115
ACCTGTCC	-0.202
CTGGCCAC	-0.0845
GATCTATA	0.119
AGTTAGCC	0.127
CAAACCCG	-0.106
TGGTCGAA	-0.0649
AGTGAACA	-0.0788
TAGAAATA	0.0232
CGCTTTAG	0.031
GTTGTTGA	0.00507
GATTTGTA	0.0487
AGAATGCC	-0.0925
AATATGCG	-0.137
AATTTTGC	-0.127

Sequence	PBM E-score
AAGCCCTG	-0.27
GAAATGAC	0.319
GCAGGACC	-0.291
CCCATTCG	-0.0153
GCCGGAGC	-0.353
CCACTATA	-0.0974
GTTTCCGA	-0.192
CGCTGGCA	-0.0908
CAGCATCG	-0.169
AGGGATTC	-0.0892
CCATATGC	-0.092
CCCCATAA	-0.106
CCTATTAG	-0.0631
CATCCCGC	-0.0306
ACTCGCCG	0.233
GTACACCA	-0.097
CAGACTCA	0.396
AGCCGCGA	0.0437
ATACGAGG	-0.182
CGTCGCGC	0.172
GGACGATA	-0.256
AAACTAGT	0.15
GATTCCGA	0.276
AAAGATTA	0.217
CGCTCTTC	-0.207

Sequence	PBM E-score
ATGAGCGC	-0.00997
GGACAGAA	0.0356
CCTAACAG	-0.103
TCGCCTAA	0.152
GCTTATTA	-0.00641
CATGGCTA	0.328
ACGTTATG	-0.131
AGCTCATC	-0.0269
AACTCGAA	-0.0714
GACGGGCA	-0.129
CGCAGTAC	0.0149
CTTGCTGC	-0.0734
CGTTCAAC	-0.125
GATGCAAC	-0.183
TTAAGGAA	0.0206
CTAGATCA	0.0507
ACCGTGAG	0.0838
AGGAAAGG	-0.0962
ACACGAAG	0.0761
AAATGTTC	-0.0329
AACCCATG	0.0857
CTTTGAGA	0.179
ATTCCGCA	-0.0624
CGTTACGC	-0.148
CAACATTC	-0.199

Sequence	PBM E-score
TGCCACAA	-0.0447
CCCCCTTC	-0.378
CTAAAAGC	-0.0902
CCCGAACG	-0.124
CAAAATGG	-0.209
AGCGCTTC	-0.175
CACTTGGG	0.0152
ACCCGGGT	-0.195
TAACGGAA	0.167
ACGGGACC	-0.212
CTCGAGGA	0.127
AAGAGCAT	-0.131
ACATGGTG	-0.0217
AGTATCAG	-0.069
ATGGCAAG	-0.18
CTGATCCC	-0.176
CTACATAG	0.0419
CCCCTCGG	-0.247
AAGCTCAC	-0.135
AGATGGCT	0.241
GCTTGCGA	0.15
ATTCATTG	0.214
ACCACGAC	0.169
GCCAATAC	-0.222
AGCTGCCC	-0.0693

Sequence	PBM E-score
AGCGTAGA	0.0147
AATCAGGA	0.263
ATAAGTGA	0.139
ACAACGGA	-0.12
ATCACATG	0.203
GACCCGCC	-0.099
AATTGAAT	0.117
CCACCACC	-0.142
ATCCGCGG	-0.152
CGTGCACG	0.0709
CTACCACC	-0.242
GTGACCCA	0.204
ATAATAGA	0.0622
GATGTTTA	0.0744
CGACCACC	-0.22
ATACACGA	0.0335
AAGGTCCT	-0.177
AGACAGGC	-0.0638
AATCGAGT	0.244
CATACATA	0.0996
CGATACCC	-0.164
AATAACGA	0.0921
